Measurements as given in PubChem BioAssay AID493208 (National Center for Advancing Translational Sciences (NCATS), 2011).
Hit rate of the full screen: of about 44,000 compounds, about 340 (0.77%) were called active. Not shown: some 5% with an inconclusive outcome. Calls follow the shape of the dose curve; as a rule, active = well fitted inhibition curve with a large enough effect; inconclusive = small, poorly fitted or top-dose-only effect; inactive = flat fitted curve, though single readings scatter. The list shows a part of the results.

Experiment: Acumen qHTS Assay for Inhibitors of the mTORC1 Signaling Pathway in MEF (Tsc2-/-, p53-/-) Cells: Sytravon;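 also: plate controls were DMSO for no effect and rapamycin for full effect; nearly all actives have a fitted effect of over 50% in size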
Settings: phospho-rpS6 immunofluorescence/PI, 24 h; series mostly up to 38.3 µM; activity change, negative = inhibition: at the top concentration
Summary of the method: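 Immunofluorescence of rpS6 phosphorylation in Tsc2-/-, p53-/- MEFs after 24 h compound exposure, normalized to propidium iodide signal. Activity is expressed as % positive cells, thresholded with 7.5 nM rapamycin.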

Structure (SMILES) | activity change, negative = inhibition
CCOc1ccccc1NC(=O)c1c(NC(=O)COc2ccccc2)sc2c1CCCC2 | inactive: 6.14%
Cc1cc(C)c(NC(=O)CSc2ccc(-c3ccccn3)nn2)c(C)c1 | inactive: -3.66%
CN(C)CCNC(=O)CN1C(=O)COc2ccc(S(=O)(=O)N3CCCC3)cc21 | inactive: -0.499%
COc1ccc(C2=Nc3ccccc3NC(c3cccs3)=N2)cc1 | inactive: 1.89%
O=C1CC(c2ccccc2)Sc2ccccc2N1Cc1ccc(F)cc1 (stereo unspecified) | inactive: 1.49%
COc1ccccc1CNC(=O)c1c[nH]c2ccc(S(=O)(=O)Nc3cc(C)cc(C)c3)cc2c1=O | inactive: -1.16%
CCCOc1ccc(CNC(=O)CCCn2ncn3c(cc4sc(CC)cc43)c2=O)cc1 | inactive: -2.34%
Cc1ccc(-c2cc(C(=O)Nc3ccc(SC(F)F)cc3)no2)cc1F | inactive: -2.98%
COc1cccc(NC(=O)CCC(=O)N2Cc3ccccc3Oc3ncccc32)c1 | inactive: -1.83%
CCCOc1ccc(NC(=O)CC2C(=O)N(c3ccccc3)C(=O)N2Cc2ccco2)cc1 (stereo unspecified) | inactive: -7.77%
Cc1ccc(CNC(=O)CSc2nc3ccsc3c(=O)n2Cc2ccccc2F)cc1 | inactive: 0.0296%
Cc1cccc(Nc2nnc(-c3ccc(C)c(S(=O)(=O)N4CCCCC4)c3)c3ccccc23)c1 | inactive: 5.84%
Cc1ccc(-n2cc(-c3ccccc3)c3c(N4CCCCC4)ncnc32)cc1 | inactive: -0.0601%
CC(C)OC(=O)c1cccc(NC(=O)Cn2nnc3sc4c(c3c2=O)CCCC4)c1 | inactive: -4.36%
Cc1ccc(S(=O)(=O)N2CCN(C(=O)c3cc(-c4ccc(Br)cc4)n[nH]3)CC2)c(C)c1 | inactive: -4.47%
CCN(CC)c1ccc(NC(=O)c2cccn2-c2nnc(N3CCCCC3)s2)c(C)c1 | inactive: 10.9%
Cc1c(Cl)cccc1-n1ncc(C(=O)N2CCN(c3ncccn3)CC2)c1C1CCN(C(=O)OC(C)(C)C)CC1 | inactive: 5.33%
Cc1ccc(NC(=O)C(Cc2ccccc2)NS(=O)(=O)c2ccc3c(c2)c(=O)n(C)c(=O)n3C)c(C)c1 (stereo unspecified) | inactive: -1.4%
CCOc1ccccc1Nc1nc2ccccc2c2nncn12 | inactive: -0.815%
COc1cccc2c1cc1c(=O)n(CC(=O)N3CCN(c4cccc(C)c4C)CC3)nc(C)n12 | inactive: 0.237%
CC(=O)c1c(C)oc2ccc(N(C(=O)Oc3ccccc3)S(=O)(=O)c3ccc(Cl)cc3)cc12 | inactive: -6.79%
Cc1ccc(CNC(=O)C2CCN(S(=O)(=O)N3CCCCC3)CC2)cc1 | inactive: 5.78%
Cc1ccc(Cn2nnc3c(=O)[nH]c(C4CCN(C(=O)Cc5ccccc5F)CC4)nc32)cc1 | inactive: -4.92%
COc1ccc(CCNC(=O)CCc2c(C)nc3c4c(C)cc(C)nc4nn3c2C)cc1OC | inactive: -0.766%
CCOc1ccc(CNC(=O)c2ccc3oc(=O)n(Cc4ccccc4)c3c2)cc1 | inactive: 0%
CCc1cccc(NS(=O)(=O)c2c(C)[nH]c(=O)[nH]c2=O)c1 | inactive: 1.48%
